# Source: the supplement of paper PMC4967469
# IC50 is the fitted dose that halves viability relative to control wells, and lower means more sensitive; a fit beyond the top or the lowest dose is shown as a bound at that dose. AUC, from the same fit, is the share of area under the viability curve across the 256-fold dose range; it is 1 without any effect and falls as sensitivity rises. For some assays here: An inferred top dose was derived from the fitted curves, not read from the paper. For some assays here: An entry number marks a drug with two screens in the source, which often give different values.
# What was measured:
# Assay in all cases: Viability of human cancer cell lines after 72 h of drug (GDSC screen)
# MPS-1-IN-1 = compound: COc1cc(N2CCC(O)CC2)ccc1Nc1cc(Nc2ccccc2S(=O)(=O)C(C)C)c2cc[nH]c2n1 [MPS-1-IN-1]; conditions: top dose 20 µM; top dose inferred
# Experimental: (§1)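 Human cancer cell lines in 384-well plates, medium with 10% serum, drug for 72 h over a 256-fold dose range (nine 2-fold or five 4-fold steps up to the top dose). Adherent lines were fixed and stained with the nucleic acid dye Syto60, suspension lines read with resazurin; signal relative to control wells, capped at 0 and 100%. One two-parameter sigmoid per drug and line, fitted in a mixed model over all curves with the slope shared within a line.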
# CP466722 = compound: COc1cc2ncnc(-n3nc(-c4ccccn4)nc3N)c2cc1OC [CP466722]; conditions: top dose 16 µM; top dose inferred
# Experimental: as §1
# GSK269962A = compound: CCn1c(-c2nonc2N)nc2cnc(Oc3cccc(NC(=O)c4ccc(OCCN5CCOCC5)cc4)c3)cc21 [GSK269962A]; conditions: top dose 5 µM; screen: GDSC drug entry 1192; top dose inferred
# Experimental: as §1
# Zibotentan = compound: COc1nc(C)cnc1NS(=O)(=O)c1cccnc1-c1ccc(-c2nnco2)cc1 [Zibotentan]; conditions: top dose 20 µM; top dose inferred
# Experimental: as §1
# Thapsigargin = compound: C/C=C(/C)C(=O)O[C@H]1C(C)=C2[C@H]([C@@H]1OC(=O)CCCCCCC)[C@@](C)(OC(C)=O)C[C@H](OC(=O)CCC)[C@@]1(O)[C@H]2OC(=O)[C@@]1(C)O [Thapsigargin]; conditions: top dose 0.512 µM; top dose inferred
# Experimental: as §1
# ABT-869 = compound: Cc1ccc(F)c(NC(=O)Nc2ccc(-c3cccc4[nH]nc(N)c34)cc2)c1 [ABT-869]; conditions: top dose 1.024 µM; top dose inferred
# Experimental: as §1
# Cytarabine = compound: Nc1ccn([C@@H]2O[C@H](CO)[C@@H](O)[C@@H]2O)c(=O)n1 [Cytarabine]; conditions: top dose 2 µM
# Experimental: as §1
# (5Z)-7-Oxozeaenol = compound: COc1cc(O)c2c(c1)/C=C/C[C@H](O)[C@H](O)C(=O)/C=C\C[C@H](C)OC2=O [(5Z)-7-Oxozeaenol]; conditions: top dose 10 µM; top dose inferred
# Experimental: as §1
# ABT-888 = compound: C[C@]1(c2nc3c(C(N)=O)cccc3[nH]2)CCCN1 [ABT-888]; conditions: top dose 5 µM; top dose inferred
# Experimental: as §1
# KU-55933 = compound: O=c1cc(-c2cccc3c2Sc2ccccc2S3)oc(N2CCOCC2)c1 [KU-55933]; conditions: top dose 10 µM
# Experimental: as §1
# CHIR-99021 = compound: Cc1cnc(-c2cnc(NCCNc3ccc(C#N)cn3)nc2-c2ccc(Cl)cc2Cl)[nH]1 [CHIR-99021]
# Experimental: as §1
# QL-X-138 = compound: C=CC(=O)Nc1cc(-n2c(=O)ccc3cnc4ccc(-c5cn[nH]c5)cc4c32)ccc1C [QL-X-138]; conditions: top dose 10.24 µM; top dose inferred
# Experimental: as §1
# [1] = top dose 2.56 µM, screen: GDSC drug entry 154
# [2] = top dose 10 µM, screen: GDSC drug entry 1241, top dose inferred
Cell Line,AUC (MPS-1-IN-1),IC50 (MPS-1-IN-1) [µM],AUC (CP466722),IC50 (CP466722) [µM],AUC (GSK269962A),IC50 (GSK269962A) [µM],AUC (Zibotentan),IC50 (Zibotentan) [µM],AUC (Thapsigargin),IC50 (Thapsigargin) [µM],AUC (ABT-869),IC50 (ABT-869) [µM],AUC (Cytarabine),IC50 (Cytarabine) [µM],AUC ((5Z)-7-Oxozeaenol),IC50 ((5Z)-7-Oxozeaenol) [µM],AUC (ABT-888),IC50 (ABT-888) [µM],AUC (KU-55933),IC50 (KU-55933) [µM],AUC (CHIR-99021; [1]),IC50 (CHIR-99021; [1]) [µM],AUC (CHIR-99021; [2]),IC50 (CHIR-99021; [2]) [µM],AUC (QL-X-138),IC50 (QL-X-138) [µM]
"LN-229 (glioma, adherent)",0.923,> 20,0.898,> 16,0.87,4.62,0.988,> 20,0.442,0.0222,0.988,> 1.02,0.77,0.757,0.562,0.925,0.987,> 5,0.968,> 10,0.987,> 2.56,0.88,> 10,0.897,> 10.2
"LN-405 (glioma, adherent)",0.984,> 20,0.815,11.8,0.931,> 5,0.984,> 20,0.834,0.464,0.982,> 1.02,0.955,> 2,0.737,3.62,0.978,> 5,0.963,> 10,0.983,> 2.56,0.957,> 10,0.74,3.8
"LNZTA3WT4 (glioma, adherent)",0.957,> 20,0.92,> 16,0.886,> 5,0.979,> 20,0.734,0.146,0.987,> 1.02,0.633,0.289,0.595,1.13,0.988,> 5,0.972,> 10,0.981,> 2.56,0.971,> 10,0.921,> 10.2
"LOU-NH91 (lung squamous cell carcinoma, adherent)",0.891,> 20,0.93,> 16,0.872,> 5,0.985,> 20,0.386,0.0151,0.985,> 1.02,0.842,1.59,0.682,2.12,0.986,> 5,0.986,> 10,0.985,> 2.56,0.948,> 10,0.974,> 10.2
"LU-135 (small cell lung carcinoma, suspension)",0.864,12.8,0.909,15.8,0.842,2.67,0.99,> 20,0.138,0.00319,0.992,> 1.02,0.951,> 2,0.897,8.69,0.992,> 5,0.95,> 10,0.958,> 2.56,0.99,> 10,0.48,0.57
"M059J (glioma, adherent)",0.94,> 20,0.798,8.38,0.896,> 5,0.985,> 20,0.31,0.00893,0.965,> 1.02,0.858,1.88,0.715,2.69,0.985,> 5,0.981,> 10,0.92,> 2.56,0.94,> 10,0.669,1.98
"MC-IXC (neuroblastoma, adherent)",0.847,9.21,0.694,2.97,0.996,> 5,0.992,> 20,0.314,0.0113,0.995,> 1.02,0.338,0.0506,0.805,3.53,0.996,> 5,0.977,> 10,0.91,1.86,0.987,> 10,0.638,1.38
"MDA-MB-330 (breast, adherent)",0.977,> 20,0.822,11.1,0.965,> 5,0.985,> 20,0.217,0.00414,0.985,> 1.02,0.958,> 2,0.846,8.91,0.986,> 5,0.966,> 10,0.955,> 2.56,0.981,> 10,0.917,> 10.2
"MDA-MB-361 (breast, adherent)",0.979,> 20,0.917,> 16,0.952,> 5,0.987,> 20,0.171,0.00326,0.989,> 1.02,0.897,> 2,0.796,4.65,0.981,> 5,0.975,> 10,0.987,> 2.56,0.984,> 10,0.762,3.64
"MDA-MB-415 (breast, adherent)",0.982,> 20,0.973,> 16,0.965,> 5,0.983,> 20,0.689,0.13,0.983,> 1.02,0.829,1.88,0.797,6.66,0.983,> 5,0.921,> 10,0.982,> 2.56,0.96,> 10,0.949,> 10.2
